Where a chain is given by its changes, count along the chain named. The list shows a part of the results.

T1: RBFOX1 RRM (Homo sapiens, UniProt Q9NWB1 109-208)
T1 sequence: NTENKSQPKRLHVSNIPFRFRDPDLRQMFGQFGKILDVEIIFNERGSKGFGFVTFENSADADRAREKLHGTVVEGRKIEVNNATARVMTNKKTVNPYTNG

B1: AUGUAAU (DNA:RNA)
RNA: GGGAGACCGGAAUUCAGAUUGUCCAUGUAAUUUAAAUCCCGUCGUAGCCACCA
DNA 1: CAATCTGAATTCCGGTCTCCC
DNA 2: TGGTGGCTACGACGGGATT
B2: GUCUAAA (DNA:RNA)
RNA: B1 RNA with A25G, G27C, U31A
DNA 1: CAATCTGAATTCCGGTCTCCC
DNA 2: TGGTGGCTACGACGGGATT
B3: AUGGCGC (DNA:RNA)
RNA: B1 RNA with U28G, A29C, A30G, U31C
DNA 1: CAATCTGAATTCCGGTCTCCC
DNA 2: TGGTGGCTACGACGGGATT
B4: GGCCACU (DNA:RNA)
RNA: B1 RNA with A25G, U26G, G27C, U28C, A30C
DNA 1: CAATCTGAATTCCGGTCTCCC
DNA 2: TGGTGGCTACGACGGGATT
B5: CCGAGCU (DNA:RNA)
RNA: B1 RNA with A25C, U26C, U28A, A29G, A30C
DNA 1: CAATCTGAATTCCGGTCTCCC
DNA 2: TGGTGGCTACGACGGGATT
B6: CUUUCGC (DNA:RNA)
RNA: B1 RNA with A25C, G27U, A29C, A30G, U31C
DNA 1: CAATCTGAATTCCGGTCTCCC
DNA 2: TGGTGGCTACGACGGGATT
B7: CGUUGCG (DNA:RNA)
RNA: B1 RNA with A25C, U26G, G27U, A29G, A30C, U31G
DNA 1: CAATCTGAATTCCGGTCTCCC
DNA 2: TGGTGGCTACGACGGGATT
B8: GUCCGUU (DNA:RNA)
RNA: B1 RNA with A25G, G27C, U28C, A29G, A30U
DNA 1: CAATCTGAATTCCGGTCTCCC
DNA 2: TGGTGGCTACGACGGGATT
B9: GUGUCGC (DNA:RNA)
RNA: B1 RNA with A25G, A29C, A30G, U31C
DNA 1: CAATCTGAATTCCGGTCTCCC
DNA 2: TGGTGGCTACGACGGGATT
B10: UGCAUCC (DNA:RNA)
RNA: GGGAGACCGGAAUUCAGAUUGUCCUGCAUCCUUAAAUCCCGUCGUAGCCACCA
DNA 1: CAATCTGAATTCCGGTCTCCC
DNA 2: TGGTGGCTACGACGGGATT
B11: CAUGAUU (DNA:RNA)
RNA: B1 RNA with A25C, U26A, G27U, U28G, A30U
DNA 1: CAATCTGAATTCCGGTCTCCC
DNA 2: TGGTGGCTACGACGGGATT
B12: GCAAGGG (DNA:RNA)
RNA: B10 RNA with U25G, G26C, C27A, U29G, C30G, C31G
DNA 1: CAATCTGAATTCCGGTCTCCC
DNA 2: TGGTGGCTACGACGGGATT
B13: UAGAUGC (DNA:RNA)
RNA: B10 RNA with G26A, C27G, C30G
DNA 1: CAATCTGAATTCCGGTCTCCC
DNA 2: TGGTGGCTACGACGGGATT
B14: CACUUAA (DNA:RNA)
RNA: B1 RNA with A25C, U26A, G27C, A29U, U31A
DNA 1: CAATCTGAATTCCGGTCTCCC
DNA 2: TGGTGGCTACGACGGGATT
B15: UACGAUC (DNA:RNA)
RNA: B10 RNA with G26A, A28G, U29A, C30U
DNA 1: CAATCTGAATTCCGGTCTCCC
DNA 2: TGGTGGCTACGACGGGATT
B16: CGUAGAC (DNA:RNA)
RNA: B10 RNA with U25C, C27U, U29G, C30A
DNA 1: CAATCTGAATTCCGGTCTCCC
DNA 2: TGGTGGCTACGACGGGATT
B17: CGUUCGA (DNA:RNA)
RNA: B1 RNA with A25C, U26G, G27U, A29C, A30G, U31A
DNA 1: CAATCTGAATTCCGGTCTCCC
DNA 2: TGGTGGCTACGACGGGATT
B18: CAGGGAC (DNA:RNA)
RNA: B1 RNA with A25C, U26A, U28G, A29G, U31C
DNA 1: CAATCTGAATTCCGGTCTCCC
DNA 2: TGGTGGCTACGACGGGATT
B19: CUGUGUU (DNA:RNA)
RNA: B1 RNA with A25C, A29G, A30U
DNA 1: CAATCTGAATTCCGGTCTCCC
DNA 2: TGGTGGCTACGACGGGATT
B20: GGUGCUC (DNA:RNA)
RNA: B10 RNA with U25G, C27U, A28G, U29C, C30U
DNA 1: CAATCTGAATTCCGGTCTCCC
DNA 2: TGGTGGCTACGACGGGATT
B21: CUUAUGG (DNA:RNA)
RNA: B10 RNA with U25C, G26U, C27U, C30G, C31G
DNA 1: CAATCTGAATTCCGGTCTCCC
DNA 2: TGGTGGCTACGACGGGATT
B22: CCUGAGC (DNA:RNA)
RNA: B1 RNA with A25C, U26C, G27U, U28G, A30G, U31C
DNA 1: CAATCTGAATTCCGGTCTCCC
DNA 2: TGGTGGCTACGACGGGATT
B23: GUACAGA (DNA:RNA)
RNA: B1 RNA with A25G, G27A, U28C, A30G, U31A
DNA 1: CAATCTGAATTCCGGTCTCCC
DNA 2: TGGTGGCTACGACGGGATT
B24: CUUUACG (DNA:RNA)
RNA: B1 RNA with A25C, G27U, A30C, U31G
DNA 1: CAATCTGAATTCCGGTCTCCC
DNA 2: TGGTGGCTACGACGGGATT
B25: CUGUUGA (DNA:RNA)
RNA: B1 RNA with A25C, A29U, A30G, U31A
DNA 1: CAATCTGAATTCCGGTCTCCC
DNA 2: TGGTGGCTACGACGGGATT
B26: UGUGAAG (DNA:RNA)
RNA: B1 RNA with A25U, U26G, G27U, U28G, U31G
DNA 1: CAATCTGAATTCCGGTCTCCC
DNA 2: TGGTGGCTACGACGGGATT
B27: CGCCAAC (DNA:RNA)
RNA: B10 RNA with U25C, A28C, U29A, C30A
DNA 1: CAATCTGAATTCCGGTCTCCC
DNA 2: TGGTGGCTACGACGGGATT
B28: CGAUGUU (DNA:RNA)
RNA: B1 RNA with A25C, U26G, G27A, A29G, A30U
DNA 1: CAATCTGAATTCCGGTCTCCC
DNA 2: TGGTGGCTACGACGGGATT
B29: GACAGUC (DNA:RNA)
RNA: B10 RNA with U25G, G26A, U29G, C30U
DNA 1: CAATCTGAATTCCGGTCTCCC
DNA 2: TGGTGGCTACGACGGGATT
B30: UCGCUAA (DNA:RNA)
RNA: B1 RNA with A25U, U26C, U28C, A29U, U31A
DNA 1: CAATCTGAATTCCGGTCTCCC
DNA 2: TGGTGGCTACGACGGGATT
B31: UAGGGCC (DNA:RNA)
RNA: B10 RNA with G26A, C27G, A28G, U29G
DNA 1: CAATCTGAATTCCGGTCTCCC
DNA 2: TGGTGGCTACGACGGGATT

For this assay, the target named is T1, RBFOX1 RRM. Put plainly: EMSA; HiTS-Eq, 1 nM pool, 10 min; buffer printed only for the single-RNA assays: 10 mM Tris pH 7.5, 150 mM NaCl, 3.4 mM EDTA, 0.001% NP-40, 30 C. To be noted: tags: His6 N-terminal (pET28a); label: 5' 32P. A digest of the protocol:
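These values rest on relative association constants, computed from read-count changes of each RNA species versus the control reaction and normalised to the cognate motif. Reads came from free RNA recovered by 8% native PAGE after purified RbFox RRM (wild type or mutant) at increasing concentrations was equilibrated for 10 min in 50 µL with 1 nM of a 5′-radiolabelled pool with 7 randomized nucleotides and DNA-annealed flanks.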
For B1, the binding signal was 0.0035 KA relative to UGCAUGU.
Regarding B2, the binding signal is 0.00371 KA relative to UGCAUGU.
As for B3, the figure is 0.0174 KA relative to UGCAUGU; as for B4, 0.00851 KA relative to UGCAUGU.
For B5, the binding signal is 0.00909 KA relative to UGCAUGU.
For the molecule B6, the binding signal was 0.0133 KA relative to UGCAUGU.
Take B7: the binding signal is 0.0173 KA relative to UGCAUGU.
With B8, the binding signal was 0.0114 KA relative to UGCAUGU.
With B9, the binding signal is 0.0166 KA relative to UGCAUGU.
B10: the binding signal was 0.0337 KA relative to UGCAUGU.
As for B11, the figure is 0.00659 KA relative to UGCAUGU.
B12: the binding signal was 0.00604 KA relative to UGCAUGU.
As for B13, the binding signal was 0.0124 KA relative to UGCAUGU.
The same measure for B14: 0.00318 KA relative to UGCAUGU; for B15: 0.00774 KA relative to UGCAUGU.
The same measure for B16: 0.00754 KA relative to UGCAUGU; for B17: 0.0138 KA relative to UGCAUGU.
As for B18, the binding signal was 0.0073 KA relative to UGCAUGU.
As for B19, the figure is 0.0207 KA relative to UGCAUGU; as for B20, 0.0279 KA relative to UGCAUGU.
For B21, the binding signal is 0.00785 KA relative to UGCAUGU.
As for B22, the binding signal is 0.00946 KA relative to UGCAUGU.
Turning to B23, the binding signal was 0.0123 KA relative to UGCAUGU.
In the case of B24, the binding signal was 0.00682 KA relative to UGCAUGU.
As for B25, the figure is 0.0269 KA relative to UGCAUGU; as for B26, 0.0226 KA relative to UGCAUGU.
Consider B27, for which the binding signal was 0.00635 KA relative to UGCAUGU.
Regarding B28, the binding signal was 0.0118 KA relative to UGCAUGU.
As for B29, the binding signal was 0.012 KA relative to UGCAUGU.
As for B30, the figure is 0.00696 KA relative to UGCAUGU; as for B31, 0.00834 KA relative to UGCAUGU.

Source of the values: article PMC9911399, “Two distinct binding modes provide the RNA-binding protein RbFox with extraordinary sequence specificity”.
